In PubChem BioAssay AID1508642 (National Center for Advancing Translational Sciences (NCATS), 2021):
The campaign covered roughly 43,000 compounds. About 200 (0.47%) were called active. Inconclusive means that the source gave no clear call. Such entries were picked first, then a sample of the others. The call rests on the fitted dose curve; in most records, active means well fitted cell-killing curve with a large enough effect; inconclusive means small, poorly fitted or top-dose-only effect, or effect the other way; inactive means flat fitted curve, though single readings scatter. Potencies beside an inconclusive call are fits to weak or partial responses and may not hold up.

experiment: Cell viability qHTS assay in S16 Pmp22-F2sN cells; conditions: S16 Pmp22-F2sN Schwann cells (luciferase reporters placed in the Pmp22 gene) viability, CellTiter-Glo, 24 h; series mostly up to 57.5 µM; further: nearly all actives have a fitted effect of over 65% in size
Method in brief: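 Luminescence from CellTiter-Glo, read by CCD camera after a 15 min room-temperature incubation, served as the viability signal. Reporter Schwann cells (S16 Pmp22-F2sN) had been treated with pin-transferred compounds for 24 h at 37C.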
Potency means the concentration at half of the fitted maximal effect; tags describe the fitted curve by direction and shape.

Structure (SMILES) | Potency
O=C(C1CCN(c2ncnc3c2nc2n3CCCCC2)CC1)N1CCN(c2ccc(F)cc2)CC1 | inconclusive: 22.4 µM [cytotoxic, single point]
Cc1oc(-c2cccc(Cl)c2)nc1CN1CCC(C(=O)NCCCN2CCN(c3ccccc3F)CC2)CC1 | inconclusive: 10 µM [cytotoxic, partial curve]
Cc1ccc(NC(=O)CN2C(=O)CC(c3ccc(F)cc3)=Nc3ccccc32)cc1F | inconclusive: 39.8 µM [cytotoxic, single point]
COc1ccc(OC)c(NC(=O)C(C)n2nc(C)c3c(C)n(-c4ccccc4)nc3c2=O)c1 (stereo unspecified) | inconclusive: 8.91 µM [cytotoxic, full curve]
COc1ccc(/C=C\c2onc(C)c2S(=O)(=O)N2CCC(C(=O)Nc3cccc(C)c3C)CC2)cc1 | inconclusive: 10 µM [rising, partial curve, poor fit]
O=C(CSCc1ccccc1Cl)NCc1ccc(Cl)c(Cl)c1 | inconclusive: 20 µM [cytotoxic, partial curve, poor fit]
Cc1nc(-n2nc(C)c(Cc3ccc(Cl)cc3)c2C)sc1C(=O)N1CCCCC1C (stereo unspecified) | inconclusive: 39.8 µM [cytotoxic, single point]
CCNC(=O)C1CCCN(c2nnc(C)c3c(C)n(-c4ccc(C)cc4)nc23)C1 (stereo unspecified) | inactive
Cc1cccc(CNC(=O)CN2C(=O)C3CCCCN3c3ccc(C(=O)N4CCCC4)cc32)c1 (stereo unspecified) | inactive
O=C(Nc1c(O)c2ccccc2oc1=O)c1cccc(F)c1 | inactive
Cc1ccc(-c2nc3nc(C)cc(N4CCN(c5cccc(C)c5)C(C)C4)n3n2)cc1 (stereo unspecified) | inactive
O=C(Nc1ccc(Cl)cc1)c1cc2c(Cl)nc3ccccc3c2s1 | inactive
CN(C)c1ccc(-c2noc(C3CC(=O)N(c4ccc5c(c4)OCCO5)C3)n2)cc1 (stereo unspecified) | inconclusive: 28.2 µM [cytotoxic, single point]
O=C(Nc1ccc(S(=O)(=O)N2CCCCC2c2cccnc2)cc1)c1ccc(F)cc1 (stereo unspecified) | inconclusive: 22.4 µM [cytotoxic, single point]
COc1ccccc1C(=O)N1c2ccccc2C(C)(c2ccc(Cl)cc2)CC1(C)C (stereo unspecified) | inactive
CC(Oc1ccccc1)C(=O)OCc1cc(=O)n2nc(C(C)C)sc2n1 (stereo unspecified) | inconclusive: 28.2 µM [cytotoxic, single point]
CCc1ccc(S(=O)(=O)c2nnn3c2nc(NCc2cccc(OC)c2)c2cc(Cl)ccc23)cc1 | inconclusive: 39.8 µM [cytotoxic, single point]
COc1ccccc1CNC(=O)c1ccc2c(c1)nnn2C1CCCC1 | inconclusive: 22.4 µM [cytotoxic, single point]
O=S(=O)(c1ccc(Cl)cc1)N1CCC(c2ccncc2)CC1 | inactive
Cc1nc2c(C(=O)NCCc3ccccc3)c[nH]n2c(=O)c1Cc1ccccc1F | inactive
CCC(Sc1ccc2nnc(CCNS(=O)(=O)c3ccc(OC)cc3)n2n1)C(=O)OC (stereo unspecified) | inconclusive: 5.01 µM [rising, full curve, poor fit]

Structure (SMILES) | Potency
O=C(CSc1ncc2c(n1)-c1cc(Cl)ccc1N(Cc1ccccc1)S2(=O)=O)NCc1ccccc1 | inconclusive: 0.355 µM [cytotoxic, full curve, poor fit]
CCOc1ccc(NC(=O)c2ncn(-c3ccccc3)n2)cc1 | inactive
COc1ccc(C(=O)Nc2ccc3nc(N4CCCCC4)cc(C)c3c2)cc1OC | inconclusive: 39.8 µM [cytotoxic, single point]
COCCCNC(=O)C1CCN(C(=O)c2cc3sccc3n2Cc2ccc(Cl)cc2)CC1 | inconclusive: 35.5 µM [cytotoxic, single point]
CCOc1ccc(S(=O)(=O)NCCc2csc3nc(-c4cccc(C)c4)nn23)cc1 | inconclusive: 39.8 µM [cytotoxic, single point]
CCc1ccc2c(c1)c(=O)c(C(=O)c1ccc(C)cc1)cn2CC(=O)Nc1ccccc1C | inconclusive: 3.16 µM [rising, full curve, poor fit]
COc1cccc(Cn2c(=O)n(CC3CCC(C(=O)N4CCOCC4)CC3)c(=O)c3sccc32)c1 (stereo unspecified) | inconclusive: 11.2 µM [cytotoxic, partial curve, poor fit]
Cc1cc(C)c2c(n1)SCC(=O)N2CC(=O)Nc1cccc(C)c1C | inconclusive: 25.1 µM [rising, partial curve, poor fit]
COc1ccc(-c2c(C)nn3c(-c4ccccc4)cc(-c4ccccc4)nc23)cc1 | inconclusive: 7.94 µM [cytotoxic, single point]
Cc1cccc(C)c1OCC(=O)Nc1c(C(=O)c2ccccc2)oc2ccccc12 | inactive
O=C(Cc1ccc(NC(=O)N2CCCCc3ccccc32)cc1)Nc1ccccc1Br | inconclusive: 39.8 µM [cytotoxic, single point]
COC(=O)c1c(-c2ccc(Cl)cc2)noc1N1CCN(c2cccc(OC)c2)CC1 | inconclusive: 39.8 µM [cytotoxic, single point]
COc1ccc(OC)c(-n2cnc3cc(C(=O)NC4CCCC4)ccc32)c1 | inactive
COc1ccc(Nc2nc3c(S(=O)(=O)c4ccccc4)nnn3c3ccc(Cl)cc23)cc1OC | inactive
Cc1oc2ncnc(N3CCOCC3)c2c1C(=O)NCc1ccccc1 | inactive
CC(C)Cn1c(-c2ccc(S(=O)(=O)N3CCCC3)cc2)csc1=Nc1ccccc1 | inconclusive: 39.8 µM [cytotoxic, single point]
COc1cccc(NC(=O)CSc2nnc3scc(-c4ccc(Cl)cc4)n23)c1 | inconclusive: 14.1 µM [cytotoxic, partial curve, poor fit]
CCc1nnc(SCC(=O)Nc2ccccc2Cl)nc1CC | inconclusive: 20 µM [cytotoxic, single point]
CC(C)COc1ccc(C(=O)NCC2(N3CCN(C)CC3)CCCCC2)cc1 | inconclusive: 35.5 µM [cytotoxic, single point]
Cc1ccc(NC(=O)C2CCCN(c3nnc(-n4c(C)ccc4C)s3)C2)c(C)c1 (stereo unspecified) | inconclusive: 39.8 µM [cytotoxic, partial curve, poor fit]
